The chains are these.
B1: PhoQ; a variant is named by its letters at X, in order, P23837 (parent)
chain: MKKLLRLFFPLSLRVRFLLATAAVVLVLSLAYGMVALIGYSVSFDKTTFRLLRGESNLFYTLAKWENNKLHVELPENIDKQSPTMTLIYDENGQLLWAQRDVPWLMKMIQPDWLKSNGFHEIEADVNDTSLLLSGDHSIQQQLQEVREDDDDAEMTHSVAVNVYPATSRMPKLTIVVVDTIPVELKSSYMVWSWFIYVLSANLLLVIPLLWVAAWWSLRPIEALAKEVRELEEHNRELLNPATTRELTSLVRNLNRLLKSERERYDKYRTTLTDLTHSLKTPLXXLQXXLRSLRSEKMSVSDAEPVMLEQISRISQQIGYYLHRASMRGGTLLSRELHPVAPLLDNLTSALNKVYQRKGVNISLDISPEISFVGEQNDFVEVMGNVLDNACKYCLEFVEISARQTDEHLYIVVEDDGPGIPLSKREVIFDRGQRVDTLRPGQGVGLAVAREITEQYEGKIVAGESMLGGARMEVIFGRQHSAPKDE

This is one part of the list.

In this test the parent is B1. In words: enrichment ratio after two sorts for PhoP signalling (ratio (wild type AVST 3.29)); higher = more functional. As to conditions: with PhoP (E. coli).
Consider NCIQ, for which the enrichment ratio was ≤ 0.25. Take IFWS: the enrichment ratio is ≤ 0.25. For KDWD the value was ≤ 0.25; for DSTC, ≤ 0.25. As for RAQE, the enrichment ratio was ≤ 0.25. In the case of SNTM, the enrichment ratio amounted to 4.98.

Take NTEC: the enrichment ratio is ≤ 0.25.

On to IQGR, for which the enrichment ratio is ≤ 0.25. On to WNPV, for which the enrichment ratio was ≤ 0.25.

For LFAW, the enrichment ratio was ≤ 0.25. For TRCC the value was 6.66; for VSWS, 1. The value for PKSI was ≤ 0.25; that for WETG was ≤ 0.25; that for SLDY was ≤ 0.25. For LDAV the value was ≤ 0.25; for TSIM, ≤ 0.25; for HWGH, ≤ 0.25. In the case of SIKW, the enrichment ratio was ≤ 0.25.

Turning to RTMT, the enrichment ratio was ≤ 0.25. For TDRW the value was ≤ 0.25; for GMKR, ≤ 0.25. The value for QMDL was ≤ 0.25; that for LLGV was ≤ 0.25; that for LAHR was ≤ 0.25. For LLKD, the enrichment ratio is ≤ 0.25. The value for HLCI was ≤ 0.25; that for ADNI was ≤ 0.25. For ASFR the value was ≤ 0.25; for PAMF, ≤ 0.25. The value for VEGF was ≤ 0.25.

Regarding YCCM, the enrichment ratio is 0.38.

Consider YPAD, for which the enrichment ratio is ≤ 0.25. Consider NLPH, for which the enrichment ratio was ≤ 0.25. The value for ILCD was ≤ 0.25. For the variant ENTQ, the enrichment ratio is ≤ 0.25.

For the variant IWNV, the enrichment ratio is ≤ 0.25. For GHNN, the enrichment ratio is ≤ 0.25. For LYCD the value was ≤ 0.25; for YYLG, ≤ 0.25; for MTME, ≤ 0.25. Regarding NNKS, the enrichment ratio is ≤ 0.25. The value for EKCM was ≤ 0.25; that for LYTN was ≤ 0.25.

As for RLKS, the enrichment ratio was ≤ 0.25. The value for VKNV was ≤ 0.25; that for SLYQ was ≤ 0.25. Regarding PIEY, the enrichment ratio is ≤ 0.25. Turning to DGPC, the enrichment ratio was ≤ 0.25. For FMPM the value was ≤ 0.25; for HPGM, ≤ 0.25. For VKVF, the enrichment ratio is ≤ 0.25. FYFL: the enrichment ratio is ≤ 0.25. The value for TQFL was 1.64; that for YNRD was ≤ 0.25. Regarding QCFS, the enrichment ratio is ≤ 0.25.

For HRHM, the enrichment ratio is ≤ 0.25.

Regarding LTFN, the enrichment ratio is ≤ 0.25. The value for KVCT was ≤ 0.25; that for IGYC was ≤ 0.25; that for RTDL was ≤ 0.25. The value for TSMP was ≤ 0.25; that for SPCW was ≤ 0.25. For GAGS the value was ≤ 0.25; for ASSR, ≤ 0.25; for YMMY, ≤ 0.25. With LKAV, the enrichment ratio was ≤ 0.25. Take VGDA: the enrichment ratio was ≤ 0.25. The value for VATI was ≤ 0.25; that for EDMG was ≤ 0.25.

As for SHDR, the enrichment ratio was ≤ 0.25. For WRTL the value was ≤ 0.25; for TNTT, 3.59; for VCPC, ≤ 0.25.

In the case of EFWT, the enrichment ratio is ≤ 0.25. The value for FEAQ was ≤ 0.25; that for YMKF was ≤ 0.25; that for IKYW was ≤ 0.25.

Turning to IPFE, the enrichment ratio is ≤ 0.25. The value for DDMQ was ≤ 0.25. Take GWHI: the enrichment ratio is ≤ 0.25. The value for LEGM was ≤ 0.25; that for VEQA was ≤ 0.25; that for KTSK was ≤ 0.25. For MHHY the value was ≤ 0.25. The value for NDIE was ≤ 0.25; that for VRSW was ≤ 0.25; that for NQML was ≤ 0.25. On to LNHW, for which the enrichment ratio is ≤ 0.25. The value for GCSV was ≤ 0.25; that for AGRI was 0.605; that for SKMP was ≤ 0.25. For MGHV the value was 2.03; for TKPA, ≤ 0.25. The value for GIMR was ≤ 0.25; that for QPSL was ≤ 0.25; that for LLAK was ≤ 0.25.

With HKMF, the enrichment ratio is ≤ 0.25.

For the variant DPAP, the enrichment ratio was ≤ 0.25. As for RFAT, the enrichment ratio is ≤ 0.25. Turning to EGFF, the enrichment ratio is ≤ 0.25. The value for HLAC was ≤ 0.25; that for IVSR was ≤ 0.25; that for DHAR was ≤ 0.25.

As to HELI, the enrichment ratio came to 1.04.

Turning to PGWW, the enrichment ratio is ≤ 0.25.

In the case of RKIK, the enrichment ratio was ≤ 0.25. The value for RIED was ≤ 0.25; that for MMES was ≤ 0.25; that for WNWC was ≤ 0.25. Regarding NKQE, the enrichment ratio was ≤ 0.25. For the variant WFHY, the enrichment ratio was ≤ 0.25. For KSPS the value was ≤ 0.25.

Take NWEK: the enrichment ratio is ≤ 0.25. Consider APHL, for which the enrichment ratio is ≤ 0.25. For HRNC the value was ≤ 0.25; for HQFN, ≤ 0.25; for MPMQ, ≤ 0.25. For RIFS the value was ≤ 0.25; for LWGY, ≤ 0.25. Take NDPN: the enrichment ratio is ≤ 0.25.

In the case of WLSA, the enrichment ratio was ≤ 0.25.

Regarding MMYS, the enrichment ratio was ≤ 0.25. For DSIN the value was ≤ 0.25. The value for IPAD was ≤ 0.25; that for PAAR was ≤ 0.25; that for GHAW was ≤ 0.25.

Turning to MDSL, the enrichment ratio was ≤ 0.25. For RTPF the value was ≤ 0.25; for MWSS, ≤ 0.25. The value for WIAS was ≤ 0.25. Regarding WTLG, the enrichment ratio is ≤ 0.25. For DFMH the value was ≤ 0.25; for PPTG, ≤ 0.25. The value for IRVR was ≤ 0.25. The value for MLWW was ≤ 0.25; that for QYTY was ≤ 0.25; that for SVSD was ≤ 0.25. Turning to VENW, the enrichment ratio is ≤ 0.25. In the case of EMIY, the enrichment ratio was ≤ 0.25. For THGH, the enrichment ratio worked out at 13.1.

Turning to SRYF, the enrichment ratio was ≤ 0.25. The value for SDAW was 3.91; that for QLLN was 0.731. In the case of ASQS, the enrichment ratio was ≤ 0.25.

For the variant YGMT, the enrichment ratio was ≤ 0.25. Take NQAT: the enrichment ratio was ≤ 0.25. The value for GYVL was ≤ 0.25. The value for VRKA was ≤ 0.25; that for WMFG was ≤ 0.25.

AGNF: the enrichment ratio was ≤ 0.25. Regarding WRQR, the enrichment ratio was ≤ 0.25. The value for NNLV was 1.76.

The values above are taken from a collection of fitness landscapes (doi:10.1126/science.1257360).
